The source of these data is the supplement of paper PMC4604168 (melanoma cell lines).

The list shows a part of the results. Many values rest on one well or one pass, so single values are uncertain.
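Further: cell number obtained by counting DAPI-stained nuclei in high-throughput microscope images with image analysis software, screen run in 1,536-well plates.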

The test relates to A101D. Nature of the test: cell count relative to DMSO control; melanoma cells; higher = more viable cells. As to conditions: library dose: low library concentration; 72 h.
On to `CC1(C)CCC(c2ccc(Cl)cc2)=C(CN2CCN(c3ccc(C(=O)NS(=O)(=O)c4ccc(N[C@H](CCN5CCOCC5)CSc5ccccc5)c(S(=O)(=O)C(F)(F)F)c4)cc3)CC2)C1` + CC1(C)NC(=O)N(c2ccc([N+](=O)[O-])c(C(F)(F)F)c2)C1=O [nilutamide] (first compound 0.4 µM, partner dose 1 µM), for which the cell count came out at 50.2%. Next, `CC1(C)CCC(c2ccc(Cl)cc2)=C(CN2CCN(c3ccc(C(=O)NS(=O)(=O)c4ccc(N[C@H](CCN5CCOCC5)CSc5ccccc5)c(S(=O)(=O)C(F)(F)F)c4)cc3)CC2)C1` + Nc1ncn([C@H]2C[C@H](O)[C@@H](CO)O2)c(=O)n1 [decitabine] (first compound 0.4 µM, partner dose 0.1 µM): 46.7%. Next, `CC1(C)CCC(c2ccc(Cl)cc2)=C(CN2CCN(c3ccc(C(=O)NS(=O)(=O)c4ccc(N[C@H](CCN5CCOCC5)CSc5ccccc5)c(S(=O)(=O)C(F)(F)F)c4)cc3)CC2)C1` + CO[C@H]1C[C@@H]2CC[C@@H](C)[C@@](O)(O2)C(=O)C(=O)N2CCCC[C@H]2C(=O)O[C@H]([C@H](C)C[C@@H]2CC[C@@H](OCCO)[C@H](OC)C2)CC(=O)[C@H](C)/C=C(\C)[C@@H](O)[C@@H](OC)C(=O)[C@H](C)C[C@H](C)/C=C/C=C/C=C/1C [everolimus] (first compound 0.4 µM, partner dose 0.02 µM): 37.6%. Take `O=C(/C=C/c1cccnc1)NCCCCC1CCN(C(=O)c2ccccc2)CC1` + Nc1cccc2c1CN(C1CCC(=O)NC1=O)C2=O [lenalidomide] (first compound 0.01 µM, partner dose 1 µM): the cell count worked out at 100%. Next, `Cc1ccc(Nc2nccc(N(C)c3ccc4c(C)n(C)nc4c3)n2)cc1S(N)(=O)=O` [Pazopanib] + OCCn1cc(-c2cnc3nnn(Cc4ccc5ncccc5c4)c3n2)cn1 [PF04217903] (first compound 0.4 µM, partner dose 1 µM): 94.2%. `O=C(/C=C/c1cccnc1)NCCCCC1CCN(C(=O)c2ccccc2)CC1` + C[C@@H]1CCN(C(=O)CC#N)C[C@@H]1N(C)c1ncnc2[nH]ccc12 [CP690550] (first compound 0.01 µM, partner dose 1 µM): the cell count was found to be 77.1%. The molecule `Cc1ccc(Nc2nccc(N(C)c3ccc4c(C)n(C)nc4c3)n2)cc1S(N)(=O)=O` [Pazopanib] + C#Cc1cccc(Nc2ncnc3cc(OCCOC)c(OCCOC)cc23)c1 [erlotinib] (first compound 0.4 µM, partner dose 0.8 µM) returned a cell count of 90.3%. In turn, `O=C(/C=C/c1cccnc1)NCCCCC1CCN(C(=O)c2ccccc2)CC1` + O=C(O)c1ccc(-c2c[nH]c3ncc(-c4ccccc4)cc23)cc1C1CCCC1 [GSK650394] (first compound 0.01 µM, partner dose 0.16 µM) yielded a cell count of 79%. Next, `O=C(/C=C/c1cccnc1)NCCCCC1CCN(C(=O)c2ccccc2)CC1` + COc1ccc(Cl)c(Nc2nc3ccccc3nc2NS(=O)(=O)c2cccc(NC(=O)C(C)(C)N)c2)c1 [XL147] (first compound 0.01 µM, partner dose 0.8 µM): 96.8%; `O=C(/C=C/c1cccnc1)NCCCCC1CCN(C(=O)c2ccccc2)CC1` + C=CCNC1=C2C[C@@H](C)C[C@H](OC)[C@H](O)[C@@H](C)/C=C(\C)[C@H](OC(N)=O)[C@@H](OC)/C=C\C=C(/C)C(=O)NC(=CC1=O)C2=O [Tanespimycin] (first compound 0.01 µM, partner dose 0.002 µM): 92.3%; `Cc1ccc(Nc2nccc(N(C)c3ccc4c(C)n(C)nc4c3)n2)cc1S(N)(=O)=O` [Pazopanib] + Nc1ncn([C@H]2C[C@H](O)[C@@H](CO)O2)c(=O)n1 [decitabine] (first compound 0.4 µM, partner dose 0.1 µM): 99.2%. The result for `CC1(C)CCC(c2ccc(Cl)cc2)=C(CN2CCN(c3ccc(C(=O)NS(=O)(=O)c4ccc(N[C@H](CCN5CCOCC5)CSc5ccccc5)c(S(=O)(=O)C(F)(F)F)c4)cc3)CC2)C1` + C=C(c1ccc(C(=O)O)cc1)c1cc2c(cc1C)C(C)(C)CCC2(C)C [Bexarotene] (first compound 0.4 µM, partner dose 2 µM) reads 46.8%; that for `O=C(/C=C/c1cccnc1)NCCCCC1CCN(C(=O)c2ccccc2)CC1` + C[C@@H](Oc1cc(-c2cnn(C3CCNCC3)c2)cnc1N)c1c(Cl)ccc(F)c1Cl [Crizotinib] (first compound 0.01 µM, partner dose 0.2 µM), 104%. The result for `CC1(C)CCC(c2ccc(Cl)cc2)=C(CN2CCN(c3ccc(C(=O)NS(=O)(=O)c4ccc(N[C@H](CCN5CCOCC5)CSc5ccccc5)c(S(=O)(=O)C(F)(F)F)c4)cc3)CC2)C1` + CCCCCCCCc1ccc(CCC(N)(CO)CO)cc1 [fingolimod] (first compound 0.4 µM, partner dose 2 µM) reads 41.1%; that for `CC1(C)CCC(c2ccc(Cl)cc2)=C(CN2CCN(c3ccc(C(=O)NS(=O)(=O)c4ccc(N[C@H](CCN5CCOCC5)CSc5ccccc5)c(S(=O)(=O)C(F)(F)F)c4)cc3)CC2)C1` + Cn1cncc1[C@@](N)(c1ccc(Cl)cc1)c1ccc2c(c1)c(-c1cccc(Cl)c1)cc(=O)n2C [tipifarnib] (first compound 0.4 µM, partner dose 0.01 µM), 43.2%; that for `O=C(/C=C/c1cccnc1)NCCCCC1CCN(C(=O)c2ccccc2)CC1` + Cn1sc(=O)n(Cc2ccccc2)c1=O [TDZD-8] (first compound 0.01 µM, partner dose 0.4 µM), 109%. Consider `Cc1ccc(Nc2nccc(N(C)c3ccc4c(C)n(C)nc4c3)n2)cc1S(N)(=O)=O` [Pazopanib] + CS(=O)(=O)c1ccc(C(=O)Nc2ccc(Cl)c(-c3ccccn3)c2)c(Cl)c1 [vismodegib] (first compound 0.4 µM, partner dose 1 µM), for which the cell count was 94.8%. `O=C(/C=C/c1cccnc1)NCCCCC1CCN(C(=O)c2ccccc2)CC1` + CN(C)S(=O)(=O)c1ccc2c(c1)/C(=C/c1cc3c([nH]1)CCCC3)C(=O)N2 [SU6656] (first compound 0.01 µM, partner dose 0.4 µM) gave a cell count of 87.9%.

With `O=C(/C=C/c1cccnc1)NCCCCC1CCN(C(=O)c2ccccc2)CC1` + COc1cc(Nc2ncc(F)c(Nc3ccc4c(n3)NC(=O)C(C)(C)O4)n2)cc(OC)c1OC [Tamatinib] (first compound 0.01 µM, partner dose 0.4 µM), the cell count was 60.3%. As to `CC1(C)CCC(c2ccc(Cl)cc2)=C(CN2CCN(c3ccc(C(=O)NS(=O)(=O)c4ccc(N[C@H](CCN5CCOCC5)CSc5ccccc5)c(S(=O)(=O)C(F)(F)F)c4)cc3)CC2)C1` + O=C(O)c1ccc2c(c1)nc(Nc1cccc(Cl)c1)c1ccncc12 [CX4945] (first compound 0.4 µM, partner dose 0.4 µM), the cell count worked out at 50.3%.

In the case of `Cc1ccc(Nc2nccc(N(C)c3ccc4c(C)n(C)nc4c3)n2)cc1S(N)(=O)=O` [Pazopanib] + C[C@@H]1CCN(C(=O)CC#N)C[C@@H]1N(C)c1ncnc2[nH]ccc12 [CP690550] (first compound 0.4 µM, partner dose 1 µM), the cell count is 86%. As for `Cc1ccc(Nc2nccc(N(C)c3ccc4c(C)n(C)nc4c3)n2)cc1S(N)(=O)=O` [Pazopanib] + Nc1nc(F)nc2c1ncn2[C@@H]1O[C@H](CO)[C@@H](O)[C@@H]1O [fludarabine] (first compound 0.4 µM, partner dose 0.2 µM), the cell count amounted to 112%. Next, `O=C(/C=C/c1cccnc1)NCCCCC1CCN(C(=O)c2ccccc2)CC1` + Cn1nnc2c(C(N)=O)ncn2c1=O [temozolomide] (first compound 0.01 µM, partner dose 2 µM): 104%; `O=C(/C=C/c1cccnc1)NCCCCC1CCN(C(=O)c2ccccc2)CC1` + CO[C@H]1C[C@@H]2CC[C@@H](C)[C@@](O)(O2)C(=O)C(=O)N2CCCC[C@H]2C(=O)O[C@H]([C@H](C)C[C@@H]2CC[C@@H](OCCO)[C@H](OC)C2)CC(=O)[C@H](C)/C=C(\C)[C@@H](O)[C@@H](OC)C(=O)[C@H](C)C[C@H](C)/C=C/C=C/C=C/1C [everolimus] (first compound 0.01 µM, partner dose 0.02 µM): 80.2%; `O=C(/C=C/c1cccnc1)NCCCCC1CCN(C(=O)c2ccccc2)CC1` + CN(c1ncccc1CNc1nc(Nc2ccc3c(c2)CC(=O)N3)ncc1C(F)(F)F)S(C)(=O)=O [PF562271] (first compound 0.01 µM, partner dose 0.08 µM): 91%. Next, `Cc1ccc(Nc2nccc(N(C)c3ccc4c(C)n(C)nc4c3)n2)cc1S(N)(=O)=O` [Pazopanib] + C[C@]1(c2nc3c(C(N)=O)cccc3[nH]2)CCCN1 [Veliparib] (first compound 0.4 µM, partner dose 1.4 µM): 87%; `Cc1ccc(Nc2nccc(N(C)c3ccc4c(C)n(C)nc4c3)n2)cc1S(N)(=O)=O` [Pazopanib] + CN(c1ncccc1CNc1nc(Nc2ccc3c(c2)CC(=O)N3)ncc1C(F)(F)F)S(C)(=O)=O [PF562271] (first compound 0.4 µM, partner dose 0.08 µM): 85.4%; `CC1(C)CCC(c2ccc(Cl)cc2)=C(CN2CCN(c3ccc(C(=O)NS(=O)(=O)c4ccc(N[C@H](CCN5CCOCC5)CSc5ccccc5)c(S(=O)(=O)C(F)(F)F)c4)cc3)CC2)C1` + CN1CCN(c2ccc3nc(-c4c(N)c5c(F)cccc5[nH]c4=O)[nH]c3c2)CC1 [Dovitinib] (first compound 0.4 µM, partner dose 0.1 µM): 48%.
